From PubChem BioAssay AID651820 (National Center for Advancing Translational Sciences (NCATS), 2012)
Among all 340,000 compounds or so, about 12,000 (3.5%) were called active. The inconclusive results got no clear call from the source; some entries with a clear call stand among them for comparison. Calls come from the whole dose curve; as a rule, active = well fitted inhibition curve with a large enough effect; inconclusive = small, poorly fitted or top-dose-only effect, or another doubt; inactive = no such curve, though single readings can be large or run the other way. Potencies of inconclusive entries are left out as doubtful fits.

Experiment: qHTS Assay for Inhibitors of Hepatitis C Virus (HCV)
Conditions: Huh7.5.1 HCVcc-Cre (HCVcc is cell-culture hepatitis C virus) infection, luciferase reporter, 44 h; activity change, negative = inhibition: at 41.8 µM (top of the series) unless noted
Outline: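 Antiviral activity was scored by luciferase reporter output from cells infected with HCVcc-Cre (~0.5 moi) in presence of compound, 44 h infection period, cells seeded 1,000/well 4 h prior.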
% is set by controls: 0 for no effect and ±100 for the full control effect; potency is the fitted concentration of half-maximal effect; tags give direction and shape of the fitted curve.

| Structure (SMILES) | Potency | activity change, negative = inhibition |
| --- | --- | --- |
| Cc1c(C=NNC(=O)c2ccc(Br)cc2)c2ccccn2c1C(=O)c1ccncc1 | inconclusive [inhibitor, full curve, poor fit] |  |
| Cc1nonc1NC(=O)c1ccc(Cl)c(S(=O)(=O)N2CCCCC2)c1 |  | inactive: 6.32% |
| C=CCn1c(SCc2c(C(=O)OC)sc(N)c2C(=O)OC)nnc1-c1ccc(Br)cc1 | inconclusive [inhibitor, partial curve] |  |
| O=C(CSCc1c(Cl)cccc1Cl)NCc1ccco1 |  | inactive: -12.6% |
| COc1cc(NC(=S)N2CCN(CCO)CC2)c(OC)cc1Cl |  | inactive: 11.7% |
| Cc1cc(OCc2cc(C(=O)N(C)CCc3cnn(C)c3)no2)cc(C)c1Cl | inconclusive [inhibitor, single point] |  |
| COc1ccccc1NC(=O)c1c(N=Cc2c(O)ccc3ccccc23)cnn1C | inconclusive [inhibitor, single point] |  |
| CC(C)[C@H](NC(=O)N1c2ccccc2NC(=O)[C@@H]1C(C)C)C(=O)N1CCC(C(=O)O)CC1 | active: 31.6 µM |  |
| COc1ccc(Br)cc1CN(C)CC(O)COc1ccc(Br)cc1 (stereo not drawn) | inconclusive [inhibitor, partial curve] |  |
| Cc1ccc(NC(=O)c2oc3c(c2C)C(=O)CC(C)(C)C3)cc1 | inconclusive [inhibitor, partial curve] |  |
| COc1ccccc1N(Cc1ccccc1)S(=O)(=O)c1cccc(C(=O)Nc2ccc(C)cn2)c1 | inconclusive [inhibitor, single point] |  |
| Cc1nc2c(sc(=S)n2Cc2ccco2)c(=O)n1CC(=O)Nc1ccccc1F | inconclusive [inhibitor, partial curve] |  |
| CC(CCc1ccccc1)NC(=O)c1cc2sccc2n1C (stereo not drawn) | inconclusive [inhibitor, single point] |  |
| O=C(NCc1ccccc1)c1ccc(NC(=O)C2CCC2)cc1 | inconclusive [inhibitor, full curve, poor fit] |  |
| Cc1ccc(-n2nc3c(=O)n(CCCC(=O)NCc4ccccc4F)nc(C)c3c2C)cc1 | inconclusive [inhibitor, partial curve] |  |
| CC(=O)Nc1ccc(Nc2nnc(-c3ccc(C)c(S(=O)(=O)NCCO)c3)c3ccccc23)cc1 |  | inactive: -1.88% |
| CCO[C@H]1OC(C(=O)Nc2ccccc2)=C[C@@H](c2ccc(C(F)(F)F)cc2)[C@@H]1CCCO | inconclusive [inhibitor, single point] |  |
| CC(NC(=O)c1ccc(NC(=O)CC2SC(N3CCCC3)=NC2=O)cc1)c1ccc(S(N)(=O)=O)cc1 (stereo not drawn) |  | inactive: -4.94% |
